Laboratory results taken from PubChem BioAssay AID687022 (Broad Institute, 2013).
About 360 (36%) of roughly 1,000 compounds were called active.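 How the source made its calls: active means Fitted curve of melting temperature shift crosses the 1.0 threshold at or below the sample's highest valid tested concentration; inconclusive means Flat fit with activity 30 to 70, or invalid fit; inactive means Opposite direction, flat within 30, or no crossing.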 Most of the strongest results are missing from this list.

biological target: Fibroblast growth factor 22 (Homo sapiens) (UniProt Q9HCT0); assay: FGF22 ligand-induced thermal stabilization – biophysical, thermal shift, cherry-pick, FGF22 synaptogenesis inhibitor project, dose response (AID 687022); conditions: recombinant FGF22 thermal shift, SYPRO orange melting; at 38 µM (top of the series) unless noted; further: reference of the scale not given here
Sequence of UniProt Q9HCT0 (Q9HCT0 whole entry, looked up): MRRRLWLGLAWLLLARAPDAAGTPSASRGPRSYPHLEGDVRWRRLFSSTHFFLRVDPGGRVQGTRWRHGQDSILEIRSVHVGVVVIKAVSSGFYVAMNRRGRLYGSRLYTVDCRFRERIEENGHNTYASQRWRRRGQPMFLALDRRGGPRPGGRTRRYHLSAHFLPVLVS

SMILES	Tm shift activity
COc1ccc(CN(C)C[C@H]2Oc3ccc(NC(=O)Cc4ccccc4)cc3C(=O)N([C@H](C)CO)C[C@@H]2C)cc1	inactive: -0.264% [at 42 µM]
C[C@@H]1CN([C@H](C)CO)C(=O)CCCn2nncc2CO[C@H]1CN(C)S(=O)(=O)c1ccc(F)cc1	inactive: 0.2%
O=[N+]([O-])c1cccc(S(=O)(=O)Nc2ccc(S(=O)(=O)Nc3nccs3)cc2)c1	inactive: -0.075%
O=S(=O)(NC[C@H]1N[C@H](CO)[C@H]1c1ccccc1)c1ccccc1	inactive: -0.134%
O=C(C[C@@H]1C=C[C@H](NC(=O)Nc2cc(F)ccc2F)[C@H](CO)O1)Nc1ccc(-c2ccccc2)cc1	inactive: 0.09%
Cc1ccc(Cl)cc1NS(=O)(=O)c1ccc2c(c1)NC(=O)C(C)C(=O)N2 (centres undefined)	inactive: -0.254%
O=C(COc1ccc(S(=O)(=O)Nc2ccccc2)cc1)NCc1ccncc1	inactive: 0.021%
C[C@H](CO)N1C[C@H](C)[C@@H](CN(C)C(=O)Nc2ccc3c(c2)OCO3)Oc2c(NC(=O)c3cnccn3)cccc2C1=O	inactive: 0.216% [at 42 µM]
C/C(=N\NC(=O)CNC(=O)c1ccncc1)c1ccc(C)cc1	inactive: -0.146%
CC(C)NC(=O)Nc1cccc2c1O[C@@H](CN(C)Cc1ccc(C(=O)Nc3ccccc3N)cc1)[C@@H](C)CN([C@H](C)CO)C2=O	inactive: -0.221%
Cc1ccc(-n2c(O)c(C=NC3CCS(=O)(=O)C3)c3ccccc3c2=O)cc1C (centres undefined)	inactive: -0.046%
O=C(C[C@H]1CC[C@H]2[C@@H](COC[C@H](O)CN2Cc2nccs2)O1)NCc1ccccc1F	inactive: 0.031% [at 42 µM]
O=C(N[C@H]1CC[C@H](CCn2cc(C3(O)CCCC3)nn2)O[C@@H]1CO)C1CCCCC1	inactive: -0.187% [at 42 µM]
CCOc1ccc(NC(=O)c2cccc(-n3cccc3)c2)cc1S(=O)(=O)N1CCOCC1	inactive: 0.046%
COc1ccc(C(=O)N2C[C@@H]3[C@H](c4ccccc42)[C@@H](CO)N3Cc2ccccc2)cc1	inactive: -0.204% [at 42 µM]
C[C@H](CO)N1C[C@H](C)[C@@H](CN(C)C(=O)CN(C)C)Oc2cc(C3=CCCCC3)ccc2S1(=O)=O	inactive: 0.246% [at 42 µM]
O=C(Nc1ccc2c(c1)[C@@H]1C[C@H](CC(=O)N3CCCCC3)O[C@@H](CO)[C@@H]1O2)NC1CCCC1	inactive: -0.198%
Cn1ncc2c(Nc3ccc(O)cc3)nc(Cl)nc21	inactive: 0.599%
COCC(=O)Nc1ccc2c(c1)[C@H]1C[C@@H](CC(=O)NCCN3CCCCC3)O[C@H](CO)[C@H]1O2	inactive: 0.022%
